# In the supplement of paper PMC8183993:
# Where a name gives a salt, the structure may show the parent alone. ± gives the standard deviation of the averaged measurements. Over roughly 3,100 compounds, “mean cytoplasmic OPP incorporation (global translation) relative to DMSO” has its median near 100; the lowest 2% begin near 56. The list shows a part of the results.
# Test system: U2OS
# Test: mean cytoplasmic OPP incorporation (global translation) relative to DMSO (% of DMSO); higher = more protein synthesis
# Settings: 10 µM; 24 h
# Description: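 Primary image-based screen in U2OS cells: compounds at 10 uM for 24 h, then a 1 h o-propargyl-puromycin (OPP) pulse, click labelling, and high-throughput microscopy. Mean cytoplasmic OPP intensity and nuclei count were normalised to DMSO wells within each plate (DMSO = 100) and averaged over triplicate plates.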
row,Structure (SMILES),mean cytoplasmic OPP incorporation
1,Cn1c(CCCC(=O)O)nc2cc(N(CCCl)CCCl)ccc21 [Bendamustine HCL],109
2,CN[C@@H]1[C@@H](O)[C@@H](O[C@@H]2[C@@H](O)[C@H](O[C@H]3O[C@H](CN)CC[C@H]3N)[C@@H](N)C[C@H]2N)OC[C@]1(C)O.CN[C@@H]1[C@@H](O)[C@@H](O[C@@H]2[C@@H](O)[C@H](O[C@H]3O[C@H]([C@@H](C)N)CC[C@H]3N)[C@@H](N)C[C@H]2N)OC[C@]1(C)O.CN[C@@H]1[C@@H](O)[C@@H](O[C@@H]2[C@@H](O)[C@H](O[C@H]3O[C@H]([C@@H](C)NC)CC[C@H]3N)[C@@H](N)C[C@H]2N)OC[C@]1(C)O [Gentamicine sulfate],102
3,CC(NC(C)(C)C)C(=O)c1cccc(Cl)c1 (stereo not given) [Bupropion hydrochloride],102
4,CC1(C)[C@H](C(=O)O[C@H](C#N)c2cccc(Oc3ccccc3)c2)[C@@H]1C=C(Br)Br [Deltamethrin],101
5,Oc1ccc2c3c1O[C@H]1c4[nH]c5ccccc5c4C[C@@]4(O)[C@@H](C2)N(CC2CC2)CC[C@]314 [Naltrindole hydrochloride],110
6,"Cc1cc(C)cc(C(=O)OC2C[C@H]3CC[C@@H](C2)N3C)c1 (stereo not given in full) [Tropanyl-3,5-dimethylbenzoate]",103
7,CC(C)[C@]12O[C@H]1[C@@H]1O[C@]13[C@]1(O[C@H]1C[C@H]1C4=C(CC[C@@]13C)C(=O)OC4)[C@@H]2O [Triptolide],66.9
8,CC(C)(C)c1cc(C=C(C#N)C#N)cc(Br)c1O,102 ± 1.4
9,NC[C@H](CC(=O)O)c1ccc(Cl)cc1 [(R)-baclofen],99.3
10,NC(=S)N/N=C/c1coc2ccccc2c1=O.[Cl][Cu][Cl],101
11,"CN1CCC2(C)c3cc(O)ccc3N(C)C12 (single isomer, unassigned; (-)) [(-)-Eseroline fumarate salt]",107
12,O=C1NC(=O)c2c1c1c3ccccc3n3c1c1c2c2ccccc2n1[C@H]1CC[C@@H]3O1,91.2
13,Cc1onc(O)c1CC(N)C(=O)O (racemic),88.1
14,Cc1onc(O)c1CC(N)C(=O)O (racemic) [(RS)-AMPA hydrobromide],103
15,CC[C@@H](CO)NC(=O)[C@@H]1C=C2c3cccc4[nH]cc(c34)C[C@H]2N(C)C1 [Methylergometrine maleate],103 ± 8.5
16,CCC1(C2=NCCN2)Cc2ccccc2O1 (stereo not given) [Efaroxan hydrochloride],95.8
17,CN(C)c1ccc(/C=C2\CCCN=C2c2cccnc2)cc1 [DMAB-anabaseine dihydrochloride],105
18,NC(N)=Nc1ccc2[nH]c3c(c2c1)C[C@@]1(O)[C@H]2Cc4ccc(O)c5c4[C@@]1(CCN2CC1CC1)[C@H]3O5 [GNTI dihydrochloride],102
19,CCOC(=O)c1ncn2c1[C@@H]1CCCN1C(=O)c1cc(OC)ccc1-2,108
20,CN1[C@@H]2CC[C@H]1C[C@@H](OC(=O)c1cc(Cl)cc(Cl)c1)C2,104
21,O=C(O)c1nn(Cc2ccc(Cl)cc2Cl)c2ccccc12 [Lonidamine],89.4
22,Cc1cc(C(C#N)c2ccc(Cl)cc2)c(Cl)cc1NC(=O)c1cc(I)cc(I)c1O (stereo not given) [Closantel],109
23,CC(C)(C)c1cc(C=C(C#N)C#N)cc(C(C)(C)C)c1O [Tyrphostin 9 (SF 6847)],92.7
24,C[C@@H]1C[C@@H]([C@H](O)CC2CC(=O)NC(=O)C2)C(=O)[C@@H](C)C1 [Cycloheximide],52.1 ± 35

row,Structure (SMILES),mean cytoplasmic OPP incorporation
1,O=c1[nH]oc2c1CCNC2 [THIP hydrochloride],96
2,O=c1[nH]oc2c1CCNC2 [THIP Hydrochloride],99.7
3,C[N+]1(C)CCc2cc3c(cc2[C@H]1[C@@H]1OC(=O)c2c1ccc1c2OCO1)OCO3 [(-)-Bicuculline methiodide],87.3
4,C[N+]1(C)CCc2cc3c(cc2[C@H]1[C@@H]1OC(=O)c2c1ccc1c2OCO1)OCO3 [(-)-Bicuculline methochloride],95.4
5,CN1CC[C@@H]2CN3CCc4cccc(c43)[C@@H]2C1 [SDZ SER 082 fumarate],104
6,NCC1(CC(=O)O)CCCCC1 [Gabapentin],91.8
7,"O=c1cccc2n1C[C@@H]1CNC[C@H]2C1 [Cytisine (Baphitoxine, Sophorine)]",96.4
8,O=c1cccc2n1C[C@@H]1CNC[C@H]2C1 [(-)-Cytisine],93.3
9,O=C(CCCN1CCC2(CC1)C(=O)NCN2c1ccccc1)c1ccc(F)cc1 [Spiperone],103
10,O=C(CCCN1CCC2(CC1)C(=O)NCN2c1ccccc1)c1ccc(F)cc1 [Spiperone hydrochloride],121
11,CC(N)C(O)c1ccccc1 (stereo not given) [Phenylpropanolamine hydrochloride],103
12,CCCCC1(C2CCCC2)Cc2cc(OCCCC(=O)O)c(Cl)c(Cl)c2C1=O (stereo not given),95.3
13,Fc1ccc(C(OCCN2CCN(C/C=C/c3ccccc3)CC2)c2ccc(F)cc2)cc1,102
14,C=C1CC[C@@]2(O)[C@H]3Cc4ccc(O)c5c4[C@@]2(CCN3CC2CC2)[C@H]1O5 [Nalmefene hydrochloride],101
15,O=[N+]([O-])O[C@H]1CO[C@H]2[C@@H]1OC[C@H]2O[N+](=O)[O-] [Isosorbide dinitrate],103
16,Cc1ncsc1CCCl [Chlormethiazole hydrochloride],90.6
17,CCN1CCN(C(=O)Cc2ccc(Nc3ncc(F)c(Nc4ccc(C(=O)Nc5ccccc5Cl)cc4)n3)cc2)CC1 [Aurora A Inhibitor I],117
18,CN1C2CCC1CC(OC(c1ccccc1)c1ccc(Cl)cc1)C2 (stereo not given),101
19,"CN1CCc2cc3c(cc2C1C1OC(=O)c2c1ccc1c2OCO1)OCO3 (single isomer, unassigned; (+)) [(+)-Bicuculline]",97.8 ± 4.2
20,CC(O)(CS(=O)(=O)c1ccc(F)cc1)C(=O)Nc1ccc(C#N)c(C(F)(F)F)c1 (stereo not given) [Bicalutamide],101
21,CCOC(=O)c1cncn1[C@H](C)c1ccccc1 [Etomidate],110 ± 2.8
22,"CC12NC(Cc3ccccc31)c1ccccc12 (single isomer, unassigned; (+)) [(+)-MK 801 maleate]",98.3
23,CC(C)c1cc2c(c(O)c1O)[C@@]1(C(=O)O)CCCC(C)(C)[C@@H]1CC2 [Carnosic acid],96.2
24,CC(C)c1cccc(C(C)C)c1O [Propofol],98

row,Structure (SMILES),mean cytoplasmic OPP incorporation
1,C[C@]12CC[C@H](O)C[C@H]1CC[C@@H]1[C@@H]2CC[C@]2(C)[C@@H](C3=CC(=O)OC3)CC[C@]12O [Digitoxigenin],26.3
2,CCCN1CCC[C@@H]2Cc3n[nH]cc3C[C@H]21 [(-)-Quinpirole hydrochloride],98.4
3,CCC(Oc1ccc(Cl)cc1)C(=O)OC1C[C@H]2CC[C@@H](C1)N2C (stereo not given in full) [SM-21 maleate],106
4,O=C(NCNC(=O)NC1C(=O)NC(=O)N1CO)NC1C(=O)NC(=O)N1CO (stereo not given) [Imidurea],105
5,CC(=O)O[C@H]1CC[C@@]2(C)C(=CC[C@@H]3[C@@H]2CC[C@]2(C)C(=O)CC[C@@H]32)C1 [Dehydroisoandosterone 3-acetate],83.5
6,O=[N+]([O-])c1ncc[nH]1 [Azomycin (2-Nitroimidazole)],97.8
7,CN1C[C@H](CNC(=O)OCc2ccccc2)C[C@@H]2c3cccc4c3c(cn4C)C[C@H]21 [Metergoline],114 ± 4.3
8,Oc1ccc2c3c1O[C@H]1[C@@H](O)CC[C@@]4(O)[C@@H](C2)N(CC2CCC2)CC[C@]314 [Nalbuphine hydrochloride],99.5
9,O=C1CN=C(c2cccc(Br)c2)c2oc3ccccc3c2N1,93.9
10,COc1cc2c(c(OC)c1OC)-c1ccc(OC)c(=O)cc1[C@@H](NC(C)=O)CC2 [Colchicine],89.8 ± 2.9
11,CC[C@@H](CO)NC(=O)[C@@H]1C=C2c3cccc4c3c(cn4C)C[C@H]2N(C)C1 [Methysergide maleate],101
12,N#C[C@H](O[C@@H]1O[C@H](CO[C@@H]2O[C@H](CO)[C@@H](O)[C@H](O)[C@H]2O)[C@@H](O)[C@H](O)[C@H]1O)c1ccccc1 [Amygdalin],108
13,"CC(=O)N1CC[N+](C)(C)CC1 [4-Acetyl-1,1-dimethylpiperazinium iodide]",100
14,C[C@]12CC[C@H](O)CC1=CC[C@@H]1[C@@H]2CC[C@]2(C)C(=O)CC[C@@H]12 [Dehydroepiandrosterone (DHEA)],99.4
15,c1ccc2c(c1)OCC(C1=NCCN1)O2 (stereo not given) [Idazoxan hydrochloride],96.7 ± 2.7
16,CCCCCC[C@H]1C(=O)O[C@H](C)[C@H](NC(=O)c2cccc(NC=O)c2O)C(=O)O[C@@H](C)[C@@H]1OC(=O)CC(C)C [Antimycin A],73.8
17,"c1ccc(C2CNCc3ccccc32)cc1 (stereo not given) [4-Phenyl-1,2,3,4-tetrahydroisoquinoline hydrochloride]",98.4
18,NC(C(=O)O)c1nn[nH]n1 (racemic) [(RS)-(Tetrazol-5-yl)glycine],102
19,COc1ccc(CC2NCCc3cc(OC)c(OC)cc32)cc1OC (stereo not given) [Tetrahydropapaverine HCl],107
20,CC[N+]1(C)CCCC(OC(=O)C(O)(c2ccccc2)c2ccccc2)C1 (stereo not given) [Pipenzolate bromide],100
21,C/C=C(/C)C(=O)O[C@H]1C(C)=C2[C@H]([C@@H]1OC(=O)CCCCCCC)[C@@](C)(OC(C)=O)C[C@H](OC(=O)CCC)[C@@]1(O)[C@H]2OC(=O)[C@@]1(C)O [Thapsigargin],95 ± 39
22,COC1(C[S@+]([O-])c2ccccc2)CCN(CCc2c[nH]c3ccc(F)cc23)CC1,101
